In PubChem BioAssay AID1768 (National Center for Advancing Translational Sciences (NCATS), 2009):
Among all 270,000 compounds or so, about 620 (0.23%) were called active. The shares of active, inactive and inconclusive entries below differ from those in the screen. Calls come from the whole dose curve; as a rule, active = well fitted inhibition curve with a large enough effect in the polarisation, with a control signal flat (not every such curve was filed as active); inconclusive = small, poorly fitted or top-dose-only effect, or effect the other way, or a change in a side signal; inactive = no such curve, though single readings can be large or run the other way; the % refers to the polarisation. Where the call is inconclusive, the potency comes from a doubtful curve fit. “Side channel” marks fits to a control or component signal instead of the main read-out.

molecular target: Menin (Homo sapiens) (UniProt O00255); assay: qHTS Assay for Inhibitors Targeting the Menin-MLL Interaction in MLL Related Leukemias: Competition With Texas Red Labeled MLL-derived Mutant Peptide; settings: fluorescence polarization; series mostly up to 61.6 µM
Potency is the fitted concentration of half-maximal effect; tags give direction and shape of the fitted curve or compound fluorescence and quenching.

Sequence of UniProt O00255 (O00255 whole entry, looked up): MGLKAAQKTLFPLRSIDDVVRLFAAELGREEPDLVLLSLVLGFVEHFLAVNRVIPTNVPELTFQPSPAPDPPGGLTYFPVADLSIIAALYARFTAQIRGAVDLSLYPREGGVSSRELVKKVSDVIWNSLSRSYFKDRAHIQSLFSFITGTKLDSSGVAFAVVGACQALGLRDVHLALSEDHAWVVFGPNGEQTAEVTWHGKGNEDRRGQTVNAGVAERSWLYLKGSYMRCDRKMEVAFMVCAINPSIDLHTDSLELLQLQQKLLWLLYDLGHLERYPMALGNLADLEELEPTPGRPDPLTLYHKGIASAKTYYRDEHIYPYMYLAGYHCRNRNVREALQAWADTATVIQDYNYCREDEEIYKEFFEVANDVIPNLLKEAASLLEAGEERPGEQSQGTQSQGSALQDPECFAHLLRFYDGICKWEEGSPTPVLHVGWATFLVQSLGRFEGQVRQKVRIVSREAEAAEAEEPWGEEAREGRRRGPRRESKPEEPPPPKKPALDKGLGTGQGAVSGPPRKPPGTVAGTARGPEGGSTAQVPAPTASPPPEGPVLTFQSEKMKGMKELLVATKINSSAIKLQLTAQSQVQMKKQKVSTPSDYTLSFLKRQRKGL

Row | Structure (SMILES) | Potency
1 | COc1ccc(S(=O)(=O)Nc2c(C(=O)O)[nH]c3ccc(OC)cc23)cc1 | inconclusive: 20 µM [quencher, side channel, partial curve]
2 | COc1cc(CNc2ccc3[nH]c(=O)[nH]c3c2)ccc1OCc1c(F)cccc1Cl | inconclusive: 20 µM [quencher, side channel, partial curve]
3 | Cc1ccc(Nc2nc(N)c([N+](=O)[O-])c(N3CCOCC3)n2)cc1 | inconclusive: 15.8 µM [quencher, side channel, partial curve]
4 | O=C(Cc1ccccc1)Nc1nnc(-c2cccc([N+](=O)[O-])c2)s1 | inactive
5 | COc1ccccc1/C=C/[C@@H]1C[C@H]2CN(Cc3cccc(Cl)c3)C(=O)[C@]23CCCN13 | inconclusive: 10 µM [fluorescent, side channel, partial curve]
6 | O=C(OCc1csc(Nc2ccccc2)n1)c1ccc(Cl)cc1 | inconclusive: 22.4 µM [quencher, side channel, single point]
7 | Cc1noc(C)c1-c1cncnc1NCc1ccccc1 | inactive
8 | O=c1c2c3c(sc2nc(NCCO)n1CCc1ccccc1)CCCCC3 | inconclusive: 28.2 µM [quencher, side channel, single point]
9 | Cc1nc2ccccc2c(=O)n1/N=C/c1ccc(C(C)C)cc1 | inconclusive: 20 µM [inhibitor, single point]
10 | O=C(Cc1cccs1)Nc1ccc(F)cc1F | inconclusive: 20 µM [quencher, side channel, single point]
11 | CCCCC(=O)OCc1nc2ccccc2s1 | inactive
12 | CCC1C(=O)NCCN1C(=O)c1ccc2nc(Cc3ccc(OC)cc3)oc2c1 (centres undefined) | inconclusive: 0.562 µM [inhibitor, full curve, poor fit]
13 | CC(C)(C)c1ccc(C(=O)Oc2ccc3c(c2)OCC3=O)cc1 | inconclusive: 25.1 µM [fluorescent, side channel, single point]
14 | COc1ccc(-c2cc(-c3ccc(OC)c(OC)c3)n[nH]2)c(O)c1 | inconclusive: 25.1 µM [quencher, side channel, partial curve]
15 | Cc1cc(C(C#N)c2ccccc2)n2ncnc2n1 (centres undefined) | inactive
16 | COc1ccc(NS(=O)(=O)c2ccc3ccccc3c2)c2ncccc12 | inconclusive: 28.2 µM [quencher, side channel, partial curve]
17 | O=C1NC(=S)N/C1=C/c1ccc2c(c1)OCO2 | inconclusive: 14.1 µM [inhibitor, partial curve]
18 | O=C(Nc1ccc2c(c1)C(=O)OC2)c1ccc(Cl)cc1Cl | inconclusive: 35.5 µM [fluorescent, single point]
19 | CN(C[C@H](Cc1ccccc1)N(CCN(CCc1ccccc1)N=O)N=O)N=O | inactive
20 | CC(C)Oc1ccccc1OCCCCn1cnc2ccccc2c1=O | inconclusive: 10 µM [fluorescent, side channel, partial curve]

Row | Structure (SMILES) | Potency
21 | CC(=O)Nc1ccc(S(=O)(=O)Oc2ccc3c(c2)C(C)=CC(C)(C)N3)cc1 | inconclusive: 28.2 µM [quencher, side channel, single point]
22 | CCN1/C(=C/c2ccc3cc(C)ccc3[n+]2CC)Sc2ccccc21 | inconclusive: 20 µM [fluorescent, side channel, partial curve]
23 | c1ccc(Nc2nnc(SCc3cccc4ccccc34)s2)cc1 | inconclusive: 39.8 µM [quencher, side channel, single point]
24 | O=C(Cn1cc[n+](CC(=O)c2ccccc2)c1)c1ccccc1 | inconclusive: 10 µM [quencher, side channel, partial curve]
25 | Cc1cc(C)c[n+](C2=C([O-])c3ccccc3C(=O)/C2=N\S(=O)(=O)c2cccs2)c1 | inconclusive: 3.98 µM [quencher, side channel, single point]
26 | Cc1ccccc1CNC(=O)CC1C(=O)NCCN1CC1CCCCC1 (centres undefined) | inconclusive: 12.6 µM [fluorescent, side channel, partial curve]
27 | Cc1oc(C(=O)O)cc1CSCc1cc(C(=O)O)c(C)o1 | inconclusive: 35.5 µM [inhibitor, single point]
28 | CC(=O)n1cc(Nc2ccc([N+](=O)[O-])cc2)c2ccccc21 | inconclusive: 22.4 µM [quencher, side channel, partial curve]
29 | CC(C)CNC(=S)N1CCN(c2nc(-c3ccc(Cl)cc3)cs2)CC1 | inconclusive: 39.8 µM [fluorescent, single point]
30 | Nc1ccc2nc(-c3ccccc3)[nH]c2c1 | inactive
31 | CC1CCC(NC(=O)CC(C)(C)Cc2nc3ccccc3c(=O)[nH]2)CC1 (centres undefined) | inconclusive: 0.708 µM [inhibitor, full curve, poor fit]
32 | O=C(COc1ccc(Br)cc1)Nc1ccc([N+](=O)[O-])cn1 | inconclusive: 25.1 µM [quencher, side channel, single point]
33 | O=C(/C=C/Nc1cccc([N+](=O)[O-])c1)c1cccs1 | inconclusive: 35.5 µM [quencher, side channel, single point]
34 | COc1ccc(-n2c(Cc3cccn3C)nnc2SCC(=O)N2CCCc3ccccc32)cc1 | inconclusive: 11.2 µM [fluorescent, side channel, partial curve]
35 | COC(=O)C1=C[C@@H](C(=O)OC)C2C3=C(C(=O)[C@@]2(C)NC(=O)c2ccccc2)[C@H](C)[C@@H]2C(=O)N(C)C(=O)[C@@H]2[C@@H]3C1 (some centres undefined) | inconclusive: 39.8 µM [inhibitor, partial curve]
36 | COc1ccccc1CC(=O)Nc1ccc(Cl)cc1C(=O)O | inactive
37 | O=c1c2cc(NC(=S)NCCCN3CCC(Cc4ccccc4)CC3)ccc2nc2n1CCCCC2 | inconclusive: 10 µM [fluorescent, side channel, partial curve]
38 | Oc1ccc(-c2csc(Nc3ncccn3)n2)cc1 | inconclusive: 11.2 µM [quencher, side channel, partial curve]
39 | COc1ccc(S(=O)(=O)/N=C2\C=C(Nc3ccc(O)cc3)C(=O)c3ccccc32)cc1 | inconclusive: 15.8 µM [quencher, side channel, partial curve]
40 | CCn1c(SCC(=O)c2ccccc2)nc2c(c1=O)SC(C)C2 (centres undefined) | inconclusive: 7.08 µM [inhibitor, full curve, poor fit]

Row | Structure (SMILES) | Potency
41 | COc1cccc(-c2nc(CS(=O)(=O)CC(=O)Nc3c(C)cccc3C)c(C)o2)c1 | inactive
42 | Cc1cc(/C=N/n2c(COc3ccccc3C)nc3ccccc3c2=O)c(O)c([N+](=O)[O-])c1 | inconclusive: 6.31 µM [quencher, side channel, partial curve]
43 | Cc1cc2cc(CNC(=S)Nc3ccc(OC(F)(F)F)cc3)ccc2n1C | inconclusive: 22.4 µM [inhibitor, single point]
44 | S=C(NCCc1ccccc1)N1CCc2ccccc2C1 | inconclusive: 31.6 µM [quencher, side channel, partial curve]
45 | COc1ccc(-c2csc3ncnc(N4CCN(c5cccc(C)c5C)CC4)c23)cc1 | inconclusive: 3.16 µM [inhibitor, partial curve]
46 | COc1ccc(C2=Nn3c(nnc3C3CCCCC3)SC2)cc1OC | inconclusive: 12.6 µM [fluorescent, side channel, partial curve]
47 | O=C(O)/C=C\C(=O)Nc1ccc(N2CCN(c3ccc(F)cc3)CC2)cc1 | inconclusive: 28.2 µM [quencher, side channel, partial curve]
48 | CCC(C)NC(=O)c1ccccc1-c1ccccc1C(=O)NC(C)CC (centres undefined) | inconclusive: 10 µM [fluorescent, side channel, partial curve]
49 | CCOc1ccc(C(C(=O)NC2CCCC2)N(C(=O)c2snc(C(N)=O)c2N)C2CCCC2)cc1 (centres undefined) | inactive
50 | CN1CCN(c2ccccc2NC(=O)COc2ccc(C3CCCCC3)cc2)CC1 | inconclusive: 3.55 µM [fluorescent, side channel, full curve, poor fit]
51 | Cc1ccc(S(=O)(=O)NCC(=O)N(CC(=O)NCC2CCCO2)Cc2ccco2)cc1 (centres undefined) | inconclusive: 31.6 µM [quencher, side channel, single point]
52 | Cc1cc(N2CCCCC2)nc(NCc2ccccc2)n1 | inconclusive: 10 µM [inhibitor, partial curve]
53 | CCOc1ccccc1NC(=O)c1cccc(NC(=O)c2ccco2)c1 | inconclusive: 31.6 µM [quencher, side channel, single point]
54 | Cc1cccc(NC(=O)c2c(O)c3ccccc3n(C)c2=O)c1 | inconclusive: 12.6 µM [quencher, side channel, partial curve]
55 | O=C(N/N=C/C(Br)=C/c1ccccc1)c1ccccc1[N+](=O)[O-] | inactive
56 | CCN(C(=O)COc1ccc(C(=O)c2ccccc2)cc1)c1ccccc1 | inconclusive: 2 µM [inhibitor, partial curve]
57 | Cc1ccc(NC(=O)CNc2ccc(Cl)c(Cl)c2)cc1S(=O)(=O)N(C)C | inconclusive: 22.4 µM [quencher, side channel, partial curve]
58 | Cc1cc(/C=N/n2c(COc3ccccc3)nc3ccccc3c2=O)c(O)c([N+](=O)[O-])c1 | inconclusive: 14.1 µM [quencher, side channel, partial curve]
59 | COc1cccc(C(=O)N2CCN(Cc3cccc(F)c3)CC2)c1 | inconclusive: 1.12 µM [inhibitor, full curve, poor fit]
